# Data published in a collection of fitness landscapes (doi:10.1016/j.celrep.2020.107928).
# In all, about 81,000 sequences were measured (“one-hybrid fitness for binding NBS DNA”: median about -0.1, highest 2% from about 0.36 on). The list shows a part of the results.
# B1: Caulobacter ParB omega fusion; a variant is named by its letters at X, in order, B8GW30 (parent)
# chain: MESVVVGEPGMSEGRRGLGRGLSALLGEVDAAPAQAPGEQLGGSREAPIEILQRNPDQPRRTFREEDLEDLSNSIREKGVLQPILVRPSPDTAGEYQIVAGERAWRAAQRAGLKTVPIMVRELDDLAVLEIGIIENVQRADLNVLEEALSYKVLMEKFERTQENIAQTIGKSXSHVANXMRLLXLPDEVQSYLVSGELTAXHARAIAAAADPVALAKQIIEGGLSVRETEALARKAPNLSAGKSKGGRPPRVKDTDTQALESDLSSVLGLDVSIDHRGSTGTLTITYATLEQLDDLCNRLTRGI
# Variants of: B1
# Assay: one-hybrid fitness for binding NBS DNA (the Noc-binding site; scaled: cognate 1, non-cognate 0); higher = stronger binding
# Settings: with NBS DNA site
# Method in brief: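 The reporter was HIS3, with the binding site 19 bp from the promoter, in E. coli USO used for bacterial one-hybrid selection of Caulobacter ParB libraries with four specificity codons randomised. Growth was on M9 lacking histidine, with 0.1 mM IPTG and 5 mM 3-AT, for 48 hours at 37°C. Illumina sequencing covered plasmids before and after selection; three replicate libraries were pooled and variants with under 10 reads dropped. A fitness score is the log change in variant-to-wild-type read ratio, rescaled to the cognate and non-cognate references.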
row,Variant,one-hybrid fitness for binding NBS DNA
1,TAER,≤ 0.2
2,MLTW,≤ 0.2
3,GCHS,≤ 0.2
4,RYGP,≤ 0.2
5,PLWL,≤ 0.2
6,YPTC,≤ 0.2
7,QPTS,≤ 0.2
8,NDLY,≤ 0.2
9,RGFM,≤ 0.2
10,LRLC,≤ 0.2
11,KVVA,≤ 0.2
12,CDPR,≤ 0.2
13,GKSC,≤ 0.2
14,DYSF,≤ 0.2
15,ENNT,≤ 0.2
16,QIGM,≤ 0.2
17,MSRY,≤ 0.2
18,QVHA,≤ 0.2
19,NTWT,≤ 0.2
20,TCLE,≤ 0.2
21,HIHS,≤ 0.2
22,GTTK,≤ 0.2
23,RDQG,≤ 0.2
24,ARDC,≤ 0.2
25,MSIV,≤ 0.2
26,QCLQ,≤ 0.2

row,Variant,one-hybrid fitness for binding NBS DNA
1,LLSY,≤ 0.2
2,SVMF,≤ 0.2
3,PDDS,≤ 0.2
4,ASHT,≤ 0.2
5,RYGH,≤ 0.2
6,QKAV,≤ 0.2
7,YILA,≤ 0.2
8,LRTQ,≤ 0.2
9,EPRD,≤ 0.2
10,PGVV,≤ 0.2
11,RGRW,≤ 0.2
12,MAVK,≤ 0.2
13,GYWC,≤ 0.2
14,TFST,≤ 0.2
15,TPNH,≤ 0.2
16,NRAC,≤ 0.2
17,RAQL,≤ 0.2
18,GGCT,≤ 0.2
19,CNIG,≤ 0.2
20,AAIN,≤ 0.2
21,TSVP,≤ 0.2
22,FVGM,≤ 0.2
23,AIPC,≤ 0.2
24,DVLD,≤ 0.2
25,FNHG,≤ 0.2
26,TPAV,≤ 0.2

row,Variant,one-hybrid fitness for binding NBS DNA
1,PTLL,≤ 0.2
2,RPFC,≤ 0.2
3,HAAD,≤ 0.2
4,HCES,≤ 0.2
5,PYMF,≤ 0.2
6,TTEC,≤ 0.2
7,GVSC,≤ 0.2
8,IING,≤ 0.2
9,GHNW,≤ 0.2
10,TKAN,≤ 0.2
11,RDKQ,≤ 0.2
12,HFHV,≤ 0.2
13,RCPG,≤ 0.2
14,ECES,≤ 0.2
15,SRRH,≤ 0.2
16,AKEG,≤ 0.2
17,WYKT,≤ 0.2
18,KRPW,≤ 0.2
19,HFHY,≤ 0.2
20,QLIK,≤ 0.2
21,TKPC,≤ 0.2
22,TGLE,≤ 0.2
23,WWPR,≤ 0.2
24,HANR,≤ 0.2
25,YKDR,0.512
26,ANSS,≤ 0.2

row,Variant,one-hybrid fitness for binding NBS DNA
1,LPPD,≤ 0.2
2,DTAM,≤ 0.2
3,GTYT,≤ 0.2
4,APAD,≤ 0.2
5,TEQE,≤ 0.2
6,IIST,≤ 0.2
7,AKKN,≤ 0.2
8,IDNR,0.348
9,RLLP,≤ 0.2
10,VLWG,≤ 0.2
11,LIPG,≤ 0.2
12,VICS,≤ 0.2
13,TIMA,≤ 0.2
14,HLAC,≤ 0.2
15,GWIY,≤ 0.2
16,KIDM,≤ 0.2
17,FNAR,≤ 0.2
18,NVYT,≤ 0.2
19,EATL,≤ 0.2
20,TTTA,≤ 0.2
21,AYST,≤ 0.2
22,HSQG,≤ 0.2
23,LGVD,≤ 0.2
24,ANLL,≤ 0.2
25,QFLM,≤ 0.2
26,HRGY,≤ 0.2

row,Variant,one-hybrid fitness for binding NBS DNA
1,PRLA,≤ 0.2
2,WERR,≤ 0.2
3,IVPE,≤ 0.2
4,FSQS,≤ 0.2
5,QPVY,≤ 0.2
6,GMSI,≤ 0.2
7,QYDM,≤ 0.2
8,QSES,≤ 0.2
9,KALI,≤ 0.2
10,SRMS,≤ 0.2
11,SNVC,≤ 0.2
12,WPRG,≤ 0.2
13,IHIC,≤ 0.2
14,WHSS,≤ 0.2
15,CTQI,≤ 0.2
16,NYFS,≤ 0.2
17,AQTG,≤ 0.2
18,TRMC,≤ 0.2
19,QALI,≤ 0.2
20,KRFL,≤ 0.2
21,CYPL,≤ 0.2
22,HLGW,≤ 0.2
23,LTDM,≤ 0.2
24,GVVR,≤ 0.2
25,SDDC,≤ 0.2
26,SIAQ,≤ 0.2

row,Variant,one-hybrid fitness for binding NBS DNA
1,KHRD,≤ 0.2
2,TPMN,≤ 0.2
3,PTIR,≤ 0.2
4,SDFG,≤ 0.2
5,NNHR,≤ 0.2
6,AHSM,≤ 0.2
7,YHIT,≤ 0.2
8,NCRY,≤ 0.2
9,HTVS,≤ 0.2
10,GARQ,≤ 0.2
11,YYMV,≤ 0.2
12,VPLA,≤ 0.2
13,EFSD,≤ 0.2
14,TLII,≤ 0.2
15,KNNH,≤ 0.2
16,CHVS,≤ 0.2
17,YPMT,≤ 0.2
18,ACKS,≤ 0.2
19,GLSC,≤ 0.2
20,REGV,≤ 0.2
21,RHRC,0.295
22,PDND,≤ 0.2
23,WTYS,≤ 0.2
